Measured values from PubChem BioAssay AID624296 (National Center for Advancing Translational Sciences (NCATS), 2012).
Hit rate of the full screen: of about 350,000 compounds, about 9,900 (2.8%) were called active. The inconclusive results got no clear call from the source; some entries with a clear call stand among them for comparison. The call rests on the fitted dose curve; in most records, active means well fitted activation curve with a large enough effect; inconclusive means small, poorly fitted or top-dose-only effect; inactive means no such curve, though single readings can be large or run the other way. No potency is given beside an inconclusive call; the fits are too rough.

Experiment: A quantitative high throughput screen for small molecules that induce DNA re-replication in MCF 10a normal breast cells. Further: nearly all actives have a fitted effect of over 50% in size. On activity, positive = re-replication: % of control where 0% means no effect.
Conditions: MCF 10A DNA re-replication, Hoechst nuclear intensity, 48 h; activity, positive = re-replication: at 46.1 µM (top of the series)
Potency means the concentration at half of the fitted maximal effect; tags describe the fitted curve by direction and shape.

Row | Compound | Potency | activity, positive = re-replication
1 | COc1ccccc1/C=C/C=N/n1c(-c2ccc(Cl)cc2Cl)n[nH]c1=S | inconclusive [activator, partial curve, poor fit] | –
2 | COc1ccc(/C=N/Nc2ncnc3sc4c(c23)CCCC4)cc1OC | inconclusive [activator, single point] | –
3 | COc1ccc(CNC(=O)C(c2ccco2)N(Cc2ccccc2)C(=O)Cc2cccs2)cc1 (stereo not drawn) | inconclusive [activator, single point] | –
4 | CC(=O)N(Cc1ccccc1C)c1cccc(C)c1C | inconclusive [activator, partial curve, poor fit] | –
5 | O=C(COC(=O)c1cccc(Br)c1)NC(=O)NC1CCCC1 | active: 0.461 µM | –
6 | COc1ccc(C(=O)Nc2ccc3nc(C)sc3c2)cc1OC | – | inactive: 2.76%
7 | Cc1ccc(C(C)C)cc1OCC(=O)NC1CCCCCCC1 | inconclusive [activator, single point] | –
8 | C/C(=N\Nc1ccc(Cl)c(Cl)c1)c1ccc(-n2ccnc2)cc1 | inconclusive [activator, single point] | –
9 | C#CCSc1nnc(CSc2nc3ccccc3s2)n1-c1ccccc1 | inconclusive [activator, partial curve, poor fit] | –
10 | Nc1c(C(=O)NCc2ccco2)nnn1CC(=O)Nc1ccccc1 | inconclusive [activator, single point] | –
11 | CC(Oc1ccccc1)C(=O)N(CCC1=CCCCC1)c1c(N)n(Cc2ccccc2)c(=O)[nH]c1=O (stereo not drawn) | inconclusive [activator, full curve, poor fit] | –
12 | Cc1nccn1CCOc1ccc(Cl)cc1 | inconclusive [activator, single point] | –
13 | O=C(CN1C(=O)c2cccc3cccc1c23)NCc1ccc2c(c1)OCO2 | inconclusive [activator, single point] | –
14 | COc1cccc(C2CC(c3cccs3)=NN2C(=O)CSC2=NCCS2)c1OC (stereo not drawn) | inconclusive [activator, single point] | –
15 | CCCCCNC(=O)c1c[nH]c2ccc(S(=O)(=O)N3CCC4(CC3)OCCO4)cc2c1=O | inactive | –
16 | Cc1ccc(O)c(C(=O)c2cc(C(=O)NCCc3ccccc3)c(=O)n(CCc3ccccc3)c2)c1 | inconclusive [activator, full curve, poor fit] | –
17 | COc1ccc(N=Cc2c(O)c3ccccc3n2C(C)=O)cc1 | inconclusive [activator, single point] | –
18 | O=c1c2c3c(sc2ncn1/N=C/c1ccccc1)CCCC3 | inconclusive [activator, full curve] | –
